Data as given in the supplement of paper PMC8948288.
Shown are siRNA guide strands that differ only in the seed, positions 2 to 7.

How the values were obtained:
GL261 = experiment: cell viability relative to siNT1 (ATP content); H4 human neuroglioma and GL261 mouse glioma; higher = less toxic; conditions: siRNA concentration 25 nM; 96 h; mouse
Experimental: (§1)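 Arrayed screen of all 4096 6mer seeds. Each seed sits at guide-strand positions 2-7 of a neutral 19mer siRNA backbone (siNT1-based, passenger strand 2'-O-methyl modified at positions 1-2 to block RISC loading, 3' DNA overhangs). The guide strand is built here as U + seed + ACAUGUAAACCA. Cells were reverse transfected in triplicate in 384-well plates (H4 at 10 nM, GL261 at 25 nM) with Lipofectamine RNAiMAX. Viability was read as ATP content (CellTiter-Glo) 96 h after transfection and normalised to siNT1 (%).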

H4 = experiment: as above; conditions: siRNA concentration 10 nM; 96 h; human
Experimental: as §1
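Note: cells reverse transfected with siRNA duplexes via lipid reagent, ATP read by luminescence, triplicate wells, values scaled to mean viability with non-targeting control siNT1.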

Sequence	cell viability (GL261) [%]	cell viability (H4) [%]
UACACACACAUGUAAACCA	44.5	77.1
UACACAGACAUGUAAACCA	47.1	67.1
UACACAUACAUGUAAACCA	48.4	105
UACACCAACAUGUAAACCA	48.7	63.8
UACACCCACAUGUAAACCA	32.2	65.6
UACACCGACAUGUAAACCA	63.3	77.2
UACACCUACAUGUAAACCA	40.9	36.7
UACACGAACAUGUAAACCA	61.6	87
UACACGCACAUGUAAACCA	30.3	37.7
UACACGGACAUGUAAACCA	39.7	65.3
UACACGUACAUGUAAACCA	60.4	80.2
UACACUAACAUGUAAACCA	60.2	93.4
UACACUCACAUGUAAACCA	34.4	67.1
UACACUGACAUGUAAACCA	66.4	77.7
UACACUUACAUGUAAACCA	54	89.5
UACAGAAACAUGUAAACCA	63.8	85.6
UACAGACACAUGUAAACCA	19.3	41.7
UACAGAGACAUGUAAACCA	64.5	105
UACAGAUACAUGUAAACCA	50.5	47.6
UACAGCAACAUGUAAACCA	46.6	79.2
UACAGCCACAUGUAAACCA	11.6	52.3
UACAGCGACAUGUAAACCA	55.3	88.8
UACAGCUACAUGUAAACCA	23.9	57.1

Sequence	cell viability (GL261) [%]	cell viability (H4) [%]
UACAGGAACAUGUAAACCA	69.4	78.7
UACAGGCACAUGUAAACCA	21.7	31.4
UACAGGGACAUGUAAACCA	48.4	65.5
UACAGGUACAUGUAAACCA	53.1	58.5
UACAGUAACAUGUAAACCA	83	90.8
UACAGUCACAUGUAAACCA	26.5	58.9
UACAGUGACAUGUAAACCA	67.8	76.4
UACAGUUACAUGUAAACCA	55.8	87.7
UACAUAAACAUGUAAACCA	62	97.2
UACAUACACAUGUAAACCA	49	56.1
UACAUAGACAUGUAAACCA	62	83.3
UACAUAUACAUGUAAACCA	68.3	81.6
UACAUCAACAUGUAAACCA	63.4	87.1
UACAUCCACAUGUAAACCA	33.3	28.5
UACAUCGACAUGUAAACCA	60.2	102
UACAUCUACAUGUAAACCA	30.3	76.1
UACAUGAACAUGUAAACCA	59.3	95.1
UACAUGCACAUGUAAACCA	58.5	16.5
UACAUGGACAUGUAAACCA	41.1	74.1
UACAUGUACAUGUAAACCA	41.4	43.8
UACAUUAACAUGUAAACCA	68.4	89.2
UACAUUCACAUGUAAACCA	43.7	92
UACAUUGACAUGUAAACCA	61.9	89

Sequence	cell viability (GL261) [%]	cell viability (H4) [%]
UACAUUUACAUGUAAACCA	55	94.3
UACCAAAACAUGUAAACCA	60.4	114
UACCAACACAUGUAAACCA	41.8	85.9
UACCAAGACAUGUAAACCA	50.6	87.3
UACCAAUACAUGUAAACCA	58.3	70.5
UACCACAACAUGUAAACCA	48.1	104
UACCACCACAUGUAAACCA	20.3	26.2
UACCACGACAUGUAAACCA	45.4	100
UACCACUACAUGUAAACCA	45.6	82.9
UACCAGAACAUGUAAACCA	47.9	79.8
UACCAGCACAUGUAAACCA	15.4	16.6
UACCAGGACAUGUAAACCA	42.3	77.3
UACCAGUACAUGUAAACCA	36.7	56.6
UACCAUAACAUGUAAACCA	61.5	96.3
UACCAUCACAUGUAAACCA	39.8	73.6
UACCAUGACAUGUAAACCA	56.8	86.1
UACCAUUACAUGUAAACCA	39.8	81.2
UACCCAAACAUGUAAACCA	73	85
UACCCACACAUGUAAACCA	29.3	70
UACCCAGACAUGUAAACCA	55.9	62.3
UACCCAUACAUGUAAACCA	70.3	58.5
UACCCCAACAUGUAAACCA	59.5	37.5
UACCCCCACAUGUAAACCA	25.4	20.1

Sequence	cell viability (GL261) [%]	cell viability (H4) [%]
UACCCCGACAUGUAAACCA	62.6	90.6
UACCCCUACAUGUAAACCA	43.7	25.9
UACCCGAACAUGUAAACCA	67.6	113
UACCCGCACAUGUAAACCA	45.2	28.8
UACCCGGACAUGUAAACCA	66.5	71.9
UACCCGUACAUGUAAACCA	62	102
UACCCUAACAUGUAAACCA	66.8	117
UACCCUCACAUGUAAACCA	40.2	41.8
UACCCUGACAUGUAAACCA	54.3	95.2
UACCCUUACAUGUAAACCA	71.2	77
UACCGAAACAUGUAAACCA	59.9	106
UACCGACACAUGUAAACCA	45.4	66.6
UACCGAGACAUGUAAACCA	70.9	111
UACCGAUACAUGUAAACCA	54.1	119
UACCGCAACAUGUAAACCA	64.7	79.2
UACCGCCACAUGUAAACCA	30.8	35.7
UACCGCGACAUGUAAACCA	65.8	102
UACCGCUACAUGUAAACCA	38.6	81.5
UACCGGAACAUGUAAACCA	51.6	68.6
UACCGGCACAUGUAAACCA	30.4	79.2
UACCGGGACAUGUAAACCA	46.7	97.2
UACCGGUACAUGUAAACCA	49.3	106
UACCGUAACAUGUAAACCA	54.5	111

Sequence	cell viability (GL261) [%]	cell viability (H4) [%]
UACCGUCACAUGUAAACCA	22.2	83.7
UACCGUGACAUGUAAACCA	64.1	76.4
UACCGUUACAUGUAAACCA	58.2	80.9
UACCUAAACAUGUAAACCA	70.9	110
UACCUACACAUGUAAACCA	51.8	78
UACCUAGACAUGUAAACCA	49.1	75
UACCUAUACAUGUAAACCA	58.8	65.1
UACCUCAACAUGUAAACCA	56.2	66.5
UACCUCCACAUGUAAACCA	22.3	41.3
UACCUCGACAUGUAAACCA	41.5	89.7
UACCUCUACAUGUAAACCA	34.6	46
UACCUGAACAUGUAAACCA	53.8	99.1
UACCUGCACAUGUAAACCA	21.8	8.8
UACCUGGACAUGUAAACCA	38.9	65.7
UACCUGUACAUGUAAACCA	34.6	53.2
UACCUUAACAUGUAAACCA	55.9	95.3
UACCUUCACAUGUAAACCA	38.6	77.8
UACCUUGACAUGUAAACCA	49	67.2
UACCUUUACAUGUAAACCA	21.3	35.8
UACGAAAACAUGUAAACCA	71.8	79.8
UACGAACACAUGUAAACCA	59.7	93.9
